Data on one substance can be found in patent US20190225647A1, “ANTIGENIC PEPTIDES FOR THE DIAGNOSIS, THERAPY MONITORING AND/OR TREATMENT OF PSORIASIS VULGARIS” (Ludwig-Maximilians-Universität München, priority 2015, published 2019).

In this assay the target is mouse CD3 on Vα3S1/Vβ13S1-TCR hybridoma cells (mouse). The assay can be described thus: cell-based or functional assay.

Regarding “anti-mouse CD3 antibody (clone 17A2, eBioscience)”, the NFAT-sGFP-positive cells after CD3 stimulation (% NFAT-sGFP-positive cells) is greater than 30.
